Some of the results follow. Repeats are few or missing, and single values can be far off.
The compounds below were run on C32 (assay: cell count relative to DMSO control; melanoma cells; higher = more viable cells). Conditions: library dose: standard library concentration; 72 h.
Compound `COc1ccc(C2=N[C@@H](c3ccc(Cl)cc3)[C@@H](c3ccc(Cl)cc3)N2C(=O)N2CCNC(=O)C2)c(OC(C)C)c1` [Nutlin-3] + O=C(O)C(=O)Nc1sc2c(c1C(=O)O)CCNC2 [TCS401] (first compound 0.5 µM, partner dose 8.33333 µM) has a cell count of 91.1%. With `Cc1cc(Nc2cc(N3CCN(C)CC3)nc(/C=C/c3ccccc3)n2)n[nH]1` + O=C(O)c1ccc(-c2c[nH]c3ncc(-c4ccccc4)cc23)cc1C1CCCC1 [GSK650394] (first compound 0.2 µM, partner dose 0.8 µM) the cell count was 79.6%. With `Cc1cc(Nc2cc(N3CCN(C)CC3)nc(/C=C/c3ccccc3)n2)n[nH]1` + C#Cc1cccc(Nc2ncnc3cc(OCCOC)c(OCCOC)cc23)c1 [erlotinib] (first compound 0.2 µM, partner dose 4 µM) the cell count was 90.3%. In the case of `Cc1cn(-c2cc(NC(=O)c3ccc(C)c(Nc4nccc(-c5cccnc5)n4)c3)cc(C(F)(F)F)c2)cn1` [nilotinib] + COc1cc2c(Oc3ccc4[nH]c(C)cc4c3F)ncnc2cc1OCCCN1CCCC1 [cediranib] (first compound 1 µM, partner dose 2 µM), the cell count is reported as 76.8%. For `Cc1cn(-c2cc(NC(=O)c3ccc(C)c(Nc4nccc(-c5cccnc5)n4)c3)cc(C(F)(F)F)c2)cn1` [nilotinib] + C=C(c1ccc(C(=O)O)cc1)c1cc2c(cc1C)C(C)(C)CCC2(C)C [Bexarotene] (first compound 1 µM, partner dose 10 µM), the cell count was 90.3%. With `Cc1cc(Nc2cc(N3CCN(C)CC3)nc(/C=C/c3ccccc3)n2)n[nH]1` + C=C(c1ccc(C(=O)O)cc1)c1cc2c(cc1C)C(C)(C)CCC2(C)C [Bexarotene] (first compound 0.2 µM, partner dose 10 µM) the cell count was 92.8%. Work on `Cc1cn(-c2cc(NC(=O)c3ccc(C)c(Nc4nccc(-c5cccnc5)n4)c3)cc(C(F)(F)F)c2)cn1` [nilotinib] + NC(=O)c1ccc(N(C(N)=O)c2c(F)cccc2F)nc1-c1ccc(F)cc1F [VX702] (first compound 1 µM, partner dose 2 µM) yielded a cell count of 113%. Work on `COc1ccc(C2=N[C@@H](c3ccc(Cl)cc3)[C@@H](c3ccc(Cl)cc3)N2C(=O)N2CCNC(=O)C2)c(OC(C)C)c1` [Nutlin-3] + CC1(C)NC(=O)N(c2ccc([N+](=O)[O-])c(C(F)(F)F)c2)C1=O [nilutamide] (first compound 0.5 µM, partner dose 5 µM) yielded a cell count of 71.7%. In the case of `Cn1c(=O)n(-c2ccc(C(C)(C)C#N)cc2)c2c3cc(-c4cnc5ccccc5c4)ccc3ncc21` + CN1CCN(c2ccc3nc(-c4c(N)c5c(F)cccc5[nH]c4=O)[nH]c3c2)CC1 [Dovitinib] (first compound 0.02 µM, partner dose 0.5 µM), the cell count is reported as 96.4%. `Cn1c(=O)n(-c2ccc(C(C)(C)C#N)cc2)c2c3cc(-c4cnc5ccccc5c4)ccc3ncc21` + CS(=O)(=O)CCNCc1ccc(-c2ccc3ncnc(Nc4ccc(OCc5cccc(F)c5)c(Cl)c4)c3c2)o1 [lapatinib] (first compound 0.02 µM, partner dose 4 µM) showed a cell count of 81.5%. `Cc1cn(-c2cc(NC(=O)c3ccc(C)c(Nc4nccc(-c5cccnc5)n4)c3)cc(C(F)(F)F)c2)cn1` [nilotinib] + Cn1cnc2c(F)c(Nc3ccc(Br)cc3Cl)c(C(=O)NOCCO)cc21 [selumetinib] (first compound 1 µM, partner dose 0.075 µM) was tested, and the cell count was 80.1%. For `Cc1cn(-c2cc(NC(=O)c3ccc(C)c(Nc4nccc(-c5cccnc5)n4)c3)cc(C(F)(F)F)c2)cn1` [nilotinib] + CN(c1ncccc1CNc1nc(Nc2ccc3c(c2)CC(=O)N3)ncc1C(F)(F)F)S(C)(=O)=O [PF562271] (first compound 1 µM, partner dose 0.4 µM), the cell count was 78.8%. Work on `CC(C)C[C@H](NC(=O)[C@H](Cc1ccccc1)NC(=O)c1cnccn1)B(O)O` [Bortezomib] + O=C(O)[C@@H]1[O][Sb](=[O])([O][Sb]2(=[O])[O][C@H]([C@H](O)CO)[C@H](O)[C@H](C(=O)O)[O]2)[O][C@H]([C@H](O)CO)[C@@H]1O [stibogluconate] (first compound 0.005 µM, partner dose 10 µM) yielded a cell count of 27%.

Source: the supplement of paper PMC4604168 (melanoma cell lines)
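Note: cells treated in 1,536-well plates, then fixed and DAPI-stained, with nuclei counted from automated high-throughput microscope images.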
